In the supplement of paper PMC11417369:
This is one part of the list.

test system: PF3D7_0420300 AP2 domain 1 (GST-tagged); test: gcPBM binding intensity (ln(normalized median fluorescence intensity)); higher = stronger DNA binding
How it was run: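 The binding buffer was 1× PBS containing 1% milk, 0.2 mg/ml BSA, 0.5% salmon testes DNA and 0.03% Triton X-100. In it, GST-tagged P. falciparum DNA-binding domains expressed in E. coli were applied for 1 h to an Agilent 4 × 180k array of primer-extended double-stranded 36-bp intergenic genomic probes plus negative controls. Binding intensity, read with Alexa488 anti-GST antibody and a 488 nm scan, is the highest Masliner-normalised natural-log median intensity across replicate spots of either probe orientation.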

| Sequence | gcPBM binding intensity (ln) |
| --- | --- |
| AGGCTCATTTTTTTTAGTACATCAAAAAAAAAAAAA [TGCATGCA_negctrl_site591] | 8.7 |
| AAATTCATATGAATTTGTACGGACATAAATATCTTC [XGTACX_site1838] | 9.19 |
| TGTATGTTTATTTGATGTACGGTCATACATATAAAT [XGTACX_site5176] | 9.15 |
| ATATATATATAGTGCACACATATAAAATATATATAA [CACACA_site2745] | 9.36 |
| TTTACAGATACTTGCTCACACATATGTATAAAAATA [CACACA_site4928] | 9.12 |
| TATAATATATATAGGAGTACGTATGTATATTTATAA [XGTACX_site3521] | 9.37 |
| TATATATAAAACATATGTACATATATATATATATAT [XGTACX_site419] | 9.22 |
| AATAGTTAAATGTACACACTAACTACATGGAATATA [CACACA_site3262] | 9.48 |
| ACATGAAACTATAAACGTACATACATACATATATAT [XGTACX_site5011] | 9.45 |
| ATATTTTATAATTTTACACACCATATAAAATAATTC [CACACA_site2797] | 9.25 |
| AAGTAAAAAAATAGCACACACACAAAAACACCCACA [CACACA_site1291] | 10 |
| TGAGCACAAATACAGGTGCATATAAAATATATGACG | 9.18 |
| AGAGGCCAGCTTTCTCTTCTAAACATGTACAAAAAT [GTGCAC_negctrl_site98] | 8.93 |
| AAAAAAATAAAATGTTCACACATTTCACAATTACTT [CACACA_site4859] | 9.2 |
| ATTTAATTTATTATGTGTACTTATTTAATTAAATTA [XGTACX_site3171] | 9.22 |
| CTGATATATAGATGTAGTACATAAAAATGACGAATT [XGTACX_site5612] | 9.44 |
| TTATATATTTATAAATGTACATATAATTTTTTTATA [XGTACX_site4696] | 9.01 |
| CATATAATTATTGAAAGTACATACAAATAAAAAGAT [XGTACX_site6535] | 9.67 |
| ATATTTTTATTTAAATCACATCATTTTGTTTATTTG [CACACA_negctrl_site1056] | 9.38 |
| ATATATATATGTATATGTACATATATATACACATAT [XGTACX_site140] | 9.23 |
| TAAATATATTTATATTGTACATTTATGTTGATACCA [XGTACX_site228] | 9.15 |
| TATATATATAATATATGTACTGATATGCTATTTACT [XGTACX_site841] | 9.32 |
| ATATTTACCACTGTATGTACATATATAAAATATATC [XGTACX_site6373] | 9.36 |

| Sequence | gcPBM binding intensity (ln) |
| --- | --- |
| TTTTGTGAATTTTAGATTTTTTAATACAAGAATATT [CACACA_negctrl_site606] | 8.85 |
| AAAAAAAAAGGTACTACACACTATTATCAATAGAAA [CACACA_site91] | 9.47 |
| TACTTATTATGAAACACACACCAAAACTACAGAATA [CACACA_site6265] | 9.79 |
| CAAAATAAAAAATTCACACACATATAAATATAAATA [CACACA_site7065] | 9.78 |
| TTTTGAAGAAAATTCTTTTTTTTTTTTTTTTGTAAA [CACACA_negctrl_site102] | 8.47 |
| ATATAATGACAAGTATAAGTATCACAAAGAAATAAA [CACACA_negctrl_site1403] | 9.43 |
| CCACTTTTTGAAGACACACACAAAAAAAAAAAAAAA [CACACA_site2551] | 8.98 |
| ATAACAATTATTTGTCGACACACGTATATGTTATTT [CACACA_site1766] | 9.64 |
| CAAGCTTTTTCCTTTACACACATTAATTATATATAT [CACACA_site1423] | 9.63 |
| CATTTTTCTATATGTGCATGTAAGATAAGAATAATT [TGCATGCA_site107] | 9.06 |
| TCATATAATATTTATATGCACACTTTTCTATATATA [CACACA_site4075] | 9.42 |
| TTTCGTCATTTTGTTTTTAATTCTACAATTTAGTTA [XGTACX_negctrl_site286] | 9.43 |
| AAAATAGCTGTATAGAGTACATATAAATAATGTTGT [XGTACX_site5692] | 9.31 |
| TAAAATAAAAGTGAAACACACAGTATTTTACAACAT [CACACA_site3811] | 9.45 |
| TGCAAAAAATTCCACACACACACACGCATATAAATA [CACACA_site6696] | 10.1 |
| TTTTTAACATTTAAATGTACATGTTACAATTTAAAG [XGTACX_site8789] | 8.88 |
| TACTAAAACCCATACACACACATATATATAGTACCA [CACACA_site3184] | 9.98 |
| ACAGCATAATCATGCTGTACATTATTTTCTTAAGTA [XGTACX_site8456] | 9.03 |
| AGAGACTTAGAAAACACACATACATAAGATAATTTA [CACACA_site2377] | 9.54 |
| ACTTACACATTTATTACACACATAAAGGAAAATTTT [CACACA_site1356] | 9.7 |
| ATATTTAAATGGATCACACATATATATATATATATA [CACACA_site5255] | 9.15 |
| TTAAAAAATAACAAGGTGCAAATAGGTTTATAAAAT | 9.7 |
| CACTAATAGTGGATTACACACATATATATGTATATA [CACACA_site2531] | 9.35 |

| Sequence | gcPBM binding intensity (ln) |
| --- | --- |
| CGCGAAGTAGCATTCACACACAGCAAAATATATATA [CACACA_site3495] | 9.49 |
| AACTATTTTATTATATGTACTTACGAATTTATAAAA [XGTACX_site5262] | 9.03 |
| CACAAAATAAATTAAACACACAACATCAGATATGTA [CACACA_site6529] | 9.59 |
| TAATATACATAATAATGTACATATTTTCATATATAC [XGTACX_site6913] | 9.18 |
| ATAAACTGATGTGTATGTACACATGTAATAATAAAT [XGTACX_site7649] | 9.57 |
| TGTGTTGTAACAAAATGTACGAGCTTGATGTAGAAT [XGTACX_site2293] | 9.39 |
| AATGTAGGTTTATTTACACACAAATATAAATATATA [CACACA_site1523] | 9.5 |
| AATAAAATAATAAAAGCACACAAGAATACAGACAAA [CACACA_site112] | 10.1 |
| TAAGTATAAATATTTACACACATTTGTTTTTTTTTA [CACACA_site7731] | 9.56 |
| ATGTAAAACATAAAATGTACATATTATACAAACTAT [XGTACX_site5797] | 9.55 |
| GGATAATATATTAGAACACACATATATCTGTAAAAA [CACACA_site4266] | 9.42 |
| TAATATAATATATGCACACAAATATGTATATATGTG [CACACA_site2134] | 9.42 |
| AAAGGATATGGACACACACACACATATATATATATA [CACACA_site8686] | 10 |
| CAACACTTATTGAAACGTACGCATATAGTTTCTTTT [XGTACX_site8960] | 9.29 |
| TTTATTTATATTTATACACACAAACATAATACTACT [CACACA_site7039] | 9.58 |
| ATATATTTTTTAAACACACACATAAATATTTGTGTA [CACACA_site2879] | 9.67 |
| TATTTTTCTTTATTGGTACACACGAAAAAAAAATTG [CACACA_site3054] | 9.13 |
| AAAATCCAGTTTTCAAAATTGAACAAAAAAAAAATA [GTGCAC_negctrl_site542] | 9.06 |
| AAAATATATATGTATGTTTATATGTTTATATATATT [XGTACX_negctrl_site337] | 9.26 |
| AAAAAAAAATTTAAGTGTACATTCCATTTTAGTTTA [XGTACX_site5286] | 9.11 |
| TCTAAGTATAAAGACACACAGAATAAAAAAAAATAT [CACACA_site2367] | 9.66 |
| TATTTAATATATTTATGTACATATTTATTTATTATT [XGTACX_site524] | 9.38 |
| AAGAAGCATAAATGTACACACATATTTATATATCAA [CACACA_site6743] | 9.51 |

| Sequence | gcPBM binding intensity (ln) |
| --- | --- |
| TATTAAAGGGGTTTCACACACATGTATAATTAATTT [CACACA_site200] | 9.5 |
| AATTTGTTATGTATATGTACATAAATAGATATATGA [XGTACX_site3930] | 9.11 |
| AATATGAACAGACACACACACACAAAAAAAAAAAAA [CACACA_site2012] | 10 |
| AACCATATTTAGATTACACACAGTTTAAATATTTTA [CACACA_site6712] | 9.37 |
| TCGTCTCTTCTTGTTCTGTTTTAGAAGGCTATATAT [CACACA_negctrl_site180] | 9.42 |
| TCCAGGTATTTATTCTGTACACATAAAACATTTTAT [XGTACX_site8472] | 9.31 |
| AGGAGGTCAGTTCACAGTACCCAGAAAACTCTACGA [XGTACX_site1992] | 9.03 |
| ATATATATATATATATGTACATATTTTAATAATTAA [XGTACX_site8549] | 8.98 |
| CGCGCACACGGACACACACACACACGGATATAAATA [CACACA_site7102] | 10.2 |
| TGTTGTTACATATATACACACATATATATATTATAT [CACACA_site2397] | 9.45 |
| TAATATAGTATAGTATGTACATATAATTAGAATATT [XGTACX_site4053] | 9.46 |
| TGGTATATATTTCCTTGTACATATAATATATATTGT [XGTACX_site3961] | 9.45 |
| TTGGATTTTCCATAATGTACACATAAAAGTGTTACA [XGTACX_site4544] | 8.76 |
| TTTTAAAAAATATAATATAATATAATATAAAATAAA [CACACA_negctrl_site154] | 8.97 |
| CAAAACCTACATAACATACACACGCATATATAGAAT [CACACA_site2846] | 9.84 |
| TTCTTATCAAGAGAAAGTACATAAAAAATTAATAAG [XGTACX_site1821] | 9.08 |
| CCAACAAAAATAAGCACACACAAATATACATACATA [CACACA_site3606] | 10.1 |
| CATGCAATATTAAACACACACTCATATAGCACAATA [CACACA_site6182] | 9.73 |
| ACAGTATCTGGTAGCTGTACGGATTGTAGAGAGTAG [XGTACX_site4872] | 9.19 |
| AGAATAATAAAATGGGTGCAATAGTTTTTTTTTTTT [GTGCAC_site9823] | 9.34 |
